Data as given in the supplement of paper PMC8728848.
Some of the results follow.

Legend:
Experiment in all cases: glycan array binding signal (z-score within array); higher = stronger binding
Conditions in all cases: glycan notation: IUPAC condensed, linker removed; mutation: F63H
Neu5Ac(a2-3)Gal = target: Neu5Ac(a2-3)Gal
Method in brief: (§1)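 Glycan array data were curated from 3228 arrays in the Consortium for Functional Glycomics database and kept only where the protein sequence was available. Glycan names were converted to IUPAC-condensed notation, and columns mapping to the same glycan were averaged. The binding signal is a within-array Z-score, averaged across arrays of the same protein sequence at different concentrations or buffers and across linkers. Negative Z-scores can be read as non-binding.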

[1] = target: Neu5Ac(a2-3)Gal(b1-3)GalNAc
Method in brief: as §1

[2] = target: Neu5Ac(a2-3)Gal(b1-3)GalNAc(b1-3)Gal(a1-4)Gal(b1-4)Glc
Method in brief: as §1

[3] = target: Neu5Ac(a2-3)Gal(b1-3)GalNAc(b1-4)Gal(b1-4)Glc
Method in brief: as §1

[4] = target: Neu5Ac(a2-3)Gal(b1-3)GalNAc(b1-4)[Neu5Ac(a2-3)]Gal(b1-4)Glc
Method in brief: as §1

[5] = target: Neu5Ac(a2-3)Gal(b1-3)GalNAc(b1-4)[Neu5Ac(a2-8)Neu5Ac(a2-3)]Gal(b1-4)Glc
Method in brief: as §1

[6] = target: Neu5Ac(a2-3)Gal(b1-3)GalNAc6S
Method in brief: as §1

[7] = target: Neu5Ac(a2-3)Gal(b1-3)GlcNAc
Method in brief: as §1

[8] = target: Neu5Ac(a2-3)Gal(b1-3)GlcNAc(b1-2)Man
Method in brief: as §1

[9] = target: Neu5Ac(a2-3)Gal(b1-3)GlcNAc(b1-2)Man(a1-3)[GlcNAc(b1-4)][Neu5Ac(a2-3)Gal(b1-3)GlcNAc(b1-2)Man(a1-6)]Man(b1-4)GlcNAc(b1-4)GlcNAc
Method in brief: as §1

[10] = target: Neu5Ac(a2-3)Gal(b1-3)GlcNAc(b1-2)Man(a1-3)[Neu5Ac(a2-3)Gal(b1-3)GlcNAc(b1-2)Man(a1-6)]Man(b1-4)GlcNAc(b1-4)GlcNAc
Method in brief: as §1

[11] = target: Neu5Ac(a2-3)Gal(b1-3)GlcNAc(b1-2)[Neu5Ac(a2-3)Gal(b1-3)GlcNAc(b1-4)]Man(a1-6)[Neu5Ac(a2-3)Gal(b1-3)GlcNAc(b1-2)Man(a1-3)]Man(b1-4)GlcNAc(b1-4)GlcNAc
Method in brief: as §1

[12] = target: Neu5Ac(a2-3)Gal(b1-3)GlcNAc(b1-3)Gal(b1-3)GlcNAc
Method in brief: as §1

[13] = target: Neu5Ac(a2-3)Gal(b1-3)GlcNAc(b1-3)Gal(b1-4)GlcNAc
Method in brief: as §1

[14] = target: Neu5Ac(a2-3)Gal(b1-3)GlcNAc(b1-3)GalNAc
Method in brief: as §1

[15] = target: Neu5Ac(a2-3)Gal(b1-3)GlcNAc(b1-6)GalNAc
Method in brief: as §1

[16] = target: Neu5Ac(a2-3)Gal(b1-3)GlcNAc6S
Method in brief: as §1

[17] = target: Neu5Ac(a2-3)Gal(b1-3)[Fuc(a1-4)]GlcNAc
Method in brief: as §1

[18] = target: Neu5Ac(a2-3)Gal(b1-3)[Fuc(a1-4)]GlcNAc(b1-3)Gal(b1-3)[Fuc(a1-4)]GlcNAc
Method in brief: as §1

[19] = target: Neu5Ac(a2-3)Gal(b1-3)[Fuc(a1-4)]GlcNAc(b1-3)Gal(b1-4)[Fuc(a1-3)]GlcNAc
Method in brief: as §1

[20] = target: Neu5Ac(a2-3)Gal(b1-3)[GlcNAc(b1-6)]GalNAc
Method in brief: as §1

[21] = target: Neu5Ac(a2-3)Gal(b1-3)[Neu5Ac(a2-6)]GalNAc
Method in brief: as §1

[22] = target: Neu5Ac(a2-3)Gal(b1-3)[Neu5Ac(a2-6)]GlcNAc(b1-3)[Fuc(a1-3)[Gal(b1-4)]GlcNAc(b1-6)]Gal(b1-4)Glc
Method in brief: as §1

[23] = target: Neu5Ac(a2-3)Gal(b1-3)]Neu5Ac(a2-3)Gal(b1-4)]GlcNAc
Method in brief: as §1

Neu5Ac(a2-3)Gal(b1-4)Glc = target: Neu5Ac(a2-3)Gal(b1-4)Glc
Method in brief: as §1

[24] = target: Neu5Ac(a2-3)Gal(b1-4)GlcNAc
Method in brief: as §1

[25] = target: Neu5Ac(a2-3)Gal(b1-4)GlcNAc(b1-2)Man
Method in brief: as §1

[26] = target: Neu5Ac(a2-3)Gal(b1-4)GlcNAc(b1-2)Man(a1-3)[GlcNAc(b1-4)][Neu5Ac(a2-3)Gal(b1-4)GlcNAc(b1-2)Man(a1-6)]Man(b1-4)GlcNAc(b1-4)GlcNAc
Method in brief: as §1

[27] = target: Neu5Ac(a2-3)Gal(b1-4)GlcNAc(b1-2)Man(a1-3)[Neu5Ac(a2-3)Gal(b1-4)GlcNAc(b1-2)Man(a1-6)]Man(b1-4)GlcNAc(b1-4)GlcNAc
Method in brief: as §1

[28] = target: Neu5Ac(a2-3)Gal(b1-4)GlcNAc(b1-2)Man(a1-3)[Neu5Ac(a2-3)Gal(b1-4)GlcNAc(b1-2)Man(a1-6)]Man(b1-4)GlcNAc(b1-4)[Fuc(a1-6)]GlcNAc
Method in brief: as §1

[29] = target: Neu5Ac(a2-3)Gal(b1-4)GlcNAc(b1-2)Man(a1-3)[Neu5Ac(a2-6)Gal(b1-4)GlcNAc(b1-2)Man(a1-6)]Man(b1-4)GlcNAc(b1-4)GlcNAc
Method in brief: as §1

[30] = target: Neu5Ac(a2-3)Gal(b1-4)GlcNAc(b1-2)[Neu5Ac(a2-3)Gal(b1-4)GlcNAc(b1-4)]Man(a1-3)[GlcNAc(b1-4)][Neu5Ac(a2-3)Gal(b1-4)GlcNAc(b1-2)[Neu5Ac(a2-3)Gal(b1-4)GlcNAc(b1-6)]Man(a1-6)]Man(b1-4)GlcNAc(b1-4)GlcNAc
Method in brief: as §1

[31] = target: Neu5Ac(a2-3)Gal(b1-4)GlcNAc(b1-2)[Neu5Ac(a2-3)Gal(b1-4)GlcNAc(b1-4)]Man(a1-3)[GlcNAc(b1-4)][Neu5Ac(a2-3)Gal(b1-4)GlcNAc(b1-4)Man(a1-6)]Man(b1-4)GlcNAc(b1-4)GlcNAc
Method in brief: as §1

[32] = target: Neu5Ac(a2-3)Gal(b1-4)GlcNAc(b1-2)[Neu5Ac(a2-3)Gal(b1-4)GlcNAc(b1-6)]Man(a1-6)[Neu5Ac(a2-3)Gal(b1-4)GlcNAc(b1-2)Man(a1-3)][GlcNAc(b1-4)]Man(b1-4)GlcNAc(b1-4)GlcNAc
Method in brief: as §1

[33] = target: Neu5Ac(a2-3)Gal(b1-4)GlcNAc(b1-3)Gal
Method in brief: as §1

[34] = target: Neu5Ac(a2-3)Gal(b1-4)GlcNAc(b1-3)Gal(b1-3)GlcNAc
Method in brief: as §1

[35] = target: Neu5Ac(a2-3)Gal(b1-4)GlcNAc(b1-3)Gal(b1-4)GlcNAc
Method in brief: as §1

[36] = target: Neu5Ac(a2-3)Gal(b1-4)GlcNAc(b1-3)Gal(b1-4)GlcNAc(b1-2)Man(a1-3)[Neu5Ac(a2-3)Gal(b1-4)GlcNAc(b1-3)Gal(b1-4)GlcNAc(b1-2)Man(a1-6)]Man(b1-4)GlcNAc(b1-4)GlcNAc
Method in brief: as §1

[37] = target: Neu5Ac(a2-3)Gal(b1-4)GlcNAc(b1-3)Gal(b1-4)GlcNAc(b1-3)Gal(b1-4)GlcNAc
Method in brief: as §1

[38] = target: Neu5Ac(a2-3)Gal(b1-4)GlcNAc(b1-3)Gal(b1-4)GlcNAc(b1-3)Gal(b1-4)GlcNAc(b1-2)Man(a1-3)[Neu5Ac(a2-3)Gal(b1-4)GlcNAc(b1-3)Gal(b1-4)GlcNAc(b1-3)Gal(b1-4)GlcNAc(b1-2)Man(a1-6)]GalNAc
Method in brief: as §1

[39] = target: Neu5Ac(a2-3)Gal(b1-4)GlcNAc(b1-3)Gal(b1-4)GlcNAc(b1-3)GalNAc
Method in brief: as §1

[40] = target: Neu5Ac(a2-3)Gal(b1-4)GlcNAc(b1-3)Gal(b1-4)GlcNAc(b1-3)[Neu5Ac(a2-3)Gal(b1-4)GlcNAc(b1-3)Gal(b1-4)GlcNAc(b1-6)]GalNAc
Method in brief: as §1

[41] = target: Neu5Ac(a2-3)Gal(b1-4)GlcNAc(b1-3)Gal(b1-4)GlcNAc(b1-6)[Gal(b1-3)]GalNAc
Method in brief: as §1

[42] = target: Neu5Ac(a2-3)Gal(b1-4)GlcNAc(b1-3)Gal(b1-4)[Fuc(a1-3)]GlcNAc
Method in brief: as §1

[43] = target: Neu5Ac(a2-3)Gal(b1-4)GlcNAc(b1-3)GalNAc
Method in brief: as §1

B1: AAL (Agrocybe aegerita), Q6WY08 (protein)
chain: MQGVNIYNISAGTSVDLAAPVTTGDIVTFFSSALNLNAGAGNPNNTTLNLFAENGAYLLHIAHRLQENVIIFNSRQPDGPWLVEQRVSDVANQFAGIDGKAMVTVFDHGDKYQVVINEKTVIQYTKQISGLTLSLSYNATEETSIFSTVVEAVTYTGLALEHHHHHH
glycan array binding signal (z-score) (Neu5Ac(a2-3)Gal): -0.276
glycan array binding signal (z-score) [1]: 0.15
glycan array binding signal (z-score) [2]: -0.547
glycan array binding signal (z-score) [3]: 0.045
glycan array binding signal (z-score) [4]: -0.023
glycan array binding signal (z-score) [5]: 0.092
glycan array binding signal (z-score) [6]: -0.151
glycan array binding signal (z-score) [7]: -0.26
glycan array binding signal (z-score) [8]: -0.168
glycan array binding signal (z-score) [9]: 0.029
glycan array binding signal (z-score) [10]: -0.225
glycan array binding signal (z-score) [11]: -0.206
glycan array binding signal (z-score) [12]: -0.335
glycan array binding signal (z-score) [13]: 0.073
glycan array binding signal (z-score) [14]: -0.58
glycan array binding signal (z-score) [15]: -0.506
glycan array binding signal (z-score) [16]: -0.002
glycan array binding signal (z-score) [17]: 0.02
glycan array binding signal (z-score) [18]: 0.007
glycan array binding signal (z-score) [19]: -0.137
glycan array binding signal (z-score) [20]: 0.214
glycan array binding signal (z-score) [21]: -0.357
glycan array binding signal (z-score) [22]: 0.417
glycan array binding signal (z-score) [23]: -0.055
glycan array binding signal (z-score) (Neu5Ac(a2-3)Gal(b1-4)Glc): 0
glycan array binding signal (z-score) [24]: -0.078
glycan array binding signal (z-score) [25]: 0.281
glycan array binding signal (z-score) [26]: -0.295
glycan array binding signal (z-score) [27]: -0.509
glycan array binding signal (z-score) [28]: 0.307
glycan array binding signal (z-score) [29]: -0.249
glycan array binding signal (z-score) [30]: -0.209
glycan array binding signal (z-score) [31]: -0.283
glycan array binding signal (z-score) [32]: 1.54
glycan array binding signal (z-score) [33]: -0.235
glycan array binding signal (z-score) [34]: -0.405
glycan array binding signal (z-score) [35]: -0.075
glycan array binding signal (z-score) [36]: -0.334
glycan array binding signal (z-score) [37]: -0.205
glycan array binding signal (z-score) [38]: 0.545
glycan array binding signal (z-score) [39]: -0.447
glycan array binding signal (z-score) [40]: 0.028
glycan array binding signal (z-score) [41]: -0.258
glycan array binding signal (z-score) [42]: -0.032
glycan array binding signal (z-score) [43]: -0.187
